The list shows a part of the results.
system: PfHDP1 homeodomain (GST-tagged); experiment: gcPBM binding intensity (ln(normalized median fluorescence intensity)); higher = stronger DNA binding
Method in brief: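 Alexa488 anti-GST antibody, scanned at 488 nm, detected GST-tagged P. falciparum DNA-binding domains that had been expressed in E. coli and incubated for 1 h on an Agilent 4 × 180k array. The array carried primer-extended double-stranded 36-bp intergenic genomic probes and negative controls. Binding intensity is the highest Masliner-normalised natural-log median intensity across replicate spots of either orientation of each probe.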

Going from “AATGGATTAGCTAGCACACACAAAAAAAAAAAAAAA [CACACA_site3031]” to “TTTTTTTTTTTTTAATGTACCCATGGGCACATAGGT [XGTACX_site486]”, the “gcPBM binding intensity (ln)” value falls from 6.42 to 6.38.

Going from “TAAATATAGGGTAATAGTACATAATTATATTCTTTT [XGTACX_site3883]” to TATATTTATATATTAGTGCACTTTTTGTTAATTTTT, the “gcPBM binding intensity (ln)” value rises from 6.28 to 10.3.

Going from “TACATATTTGTATATGCACACATAAATTTTTCCATT [CACACA_site9148]” to “AAATATTTATACCACACACACATACCTCTATTTGTA [CACACA_site6957]”, the “gcPBM binding intensity (ln)” value falls from 9.69 to 6.61.

First: AAATAAAATCATGAATGTACACAAAAATTATTGCAA [XGTACX_site5691]
Second: TTTGAAGGAAGGGGGGGAGGGGCCATAACAAAGGAA [GTGCAC_negctrl_site408]
The “gcPBM binding intensity (ln)” value of the first is lower: 6.99 for the first, 8.09 for the second.

Compared with “TATTTTAGAGAAAAAAATAAATTACAAAATGTTAGG [CACACA_negctrl_site1645]”, “ACTGTACTATAAAATACACACATATAAATATAAATA [CACACA_site3009]” is higher in “gcPBM binding intensity (ln)” value: 6.2 for the first, 6.69 for the second.

Compared with “TTAAATATCCATATTTCACACATTTCGATATATATA [CACACA_site4208]”, “GAATGTAAATATTAAAGTACACAGAATATATCTTCA [XGTACX_site8149]” is higher in “gcPBM binding intensity (ln)” value: 6.31 for the first, 6.4 for the second.

First: TATAATATTATATAATGTACGCATTTATTATTTAAA [XGTACX_site8326]
Second: ATAATGTCATAATTATATCCTTTGGCATAAAATAAA [XGTACX_negctrl_site574]
The “gcPBM binding intensity (ln)” value of the first is higher: 6.28 for the first, 6 for the second.

Compared with “CCTAAATAAATGGACACACACATATTTATATTTATA [CACACA_site6789]”, “TATTTGTATATTCATTCCTGTATTCCCTTTTTTGTA [CACACA_negctrl_site1236]” is higher in “gcPBM binding intensity (ln)” value: 6.44 for the first, 6.73 for the second.

First: TGTACGTTTTTTAACACACACACAAAAAAAAAAAAA [CACACA_site6006]
Second: ATATATATATATGTATGTACATAATATTTTTTTTAT [XGTACX_site5551]
The “gcPBM binding intensity (ln)” value of the first is lower: 6.46 for the first, 8.98 for the second.

First: AAAAAAAAAAAAAATACACACAAATAATAAAAATAA [CACACA_site1431]
Second: ATACCATATAATTATGTGAGAAAATATAATATTCAT [CACACA_negctrl_site310]
The “gcPBM binding intensity (ln)” value of the first is lower: 6.48 for the first, 6.55 for the second.

First: ATTTTCTTAAATAAATGTACATGGCATTAAAAGTAA [XGTACX_site5119]
Second: AAAAAAGATATATAAACACACATATTTATATACACA [CACACA_site6866]
The “gcPBM binding intensity (ln)” value of the first is higher: 6.64 for the first, 6.24 for the second.

Going from “GATAGACACGTGCACACATGCAATACTTTATTCAGT [TGCATGCA_site778]” to “ATAAATAACTTTTAAATACACACGTAAAATATATTG [CACACA_site3302]”, the “gcPBM binding intensity (ln)” value falls from 10 to 6.58.

Compared with “ATTTATATTATGAGGAGTACAATACTTATAGATGTA [XGTACX_site7510]”, “TATATACGTAATAGTAGTACTTTAAAATGCGGAAAT [XGTACX_site4597]” is higher in “gcPBM binding intensity (ln)” value: 6.44 for the first, 7.02 for the second.

Compared with “TGTACGAGTCGTAGAGTGCAGTCTGGAGAAACGTAC [GTGCAC_site9682]”, “TTTAACAACTATTTCTGTACACATTTTTATATAATT [XGTACX_site4917]” is higher in “gcPBM binding intensity (ln)” value: 6.92 for the first, 7.1 for the second.

Compared with “TGAACCCACAAATCACGTACATATATATACACGTGT [XGTACX_site7739]”, “ATATACATTTTAAATTTTAATGTAACCCATGGGAGA [CACACA_negctrl_site588]” is lower in “gcPBM binding intensity (ln)” value: 6.54 for the first, 6.3 for the second.

Going from “TATAATATATATGTATGTACGTATGTATGATTTTGT [XGTACX_site1164]” to “AAGAAAAATTCTTCACGTACAAATAATTATATATAT [XGTACX_site7217]”, the “gcPBM binding intensity (ln)” value rises from 6.69 to 6.78.

Going from “TTTATAATTTATAGGCGGACAGGAAAATTTTATAAA [XGTACX_site6955]” to “TTTTTTAAATATATATGTACATATATCTATATATAT [XGTACX_site3461]”, the “gcPBM binding intensity (ln)” value falls from 6.95 to 6.66.

First: GCAAGGTCCACACTGGTGCATTAAAAATAAAATATA [GTGCAC_site9956]
Second: AAATTACAAATAAAATGTACTCATGTTTTTATTATA [XGTACX_site7223]
The “gcPBM binding intensity (ln)” value of the first is higher: 10.4 for the first, 6.13 for the second.

Compared with “TTTTTAATTTTTTTCACACATATATAAATACAAATA [CACACA_site5530]”, “TACAGGAATATTTTTACACACTAAAAGTTATAAACT [CACACA_site6876]” is lower in “gcPBM binding intensity (ln)” value: 6.5 for the first, 6.13 for the second.

First: TTTTTCTTTTTTTGTTGTACATTTTGTAATATTTAC [XGTACX_site4102]
Second: TGAACAGGTCATAATTTACACACTATATATTTTATT [CACACA_site8123]
The “gcPBM binding intensity (ln)” value of the first is higher: 6.62 for the first, 6.24 for the second.

First: TATTCCCCCCAACACACACACACACCGACATACCAC [CACACA_site8723]
Second: GAATTATATACTTATTGTACAAAAAAAAAAAAAAAA [XGTACX_site3193]
The “gcPBM binding intensity (ln)” value of the first is higher: 7.75 for the first, 6.12 for the second.

Going from “ATAAACATGTATATATTAAAAAAAAAAAAAAAAAAT [CACACA_negctrl_site92]” to “TTATTTATATATTGCCCACACACATGTGATTATTTA [CACACA_site1715]”, the “gcPBM binding intensity (ln)” value rises from 6.42 to 6.84.

Going from “AATATTTTTTGTTTTACACACATATATAAATATATA [CACACA_site3602]” to “AAGTTTAAAGGAATTACACAAACAAGCAAATATATA [CACACA_negctrl_site857]”, the “gcPBM binding intensity (ln)” value rises from 6.69 to 6.92.

Compared with “GTAAAATAAATAATATAAATAAAATGAAATGAAACA [TGCATGCA_negctrl_site519]”, “ATTTTTTTTTTTTTTTTTAATTTATGTTGTTATTTT [CACACA_negctrl_site944]” is lower in “gcPBM binding intensity (ln)” value: 6.75 for the first, 6.25 for the second.

Compared with “ATTATATAATAATAAAGTACTAATATTTTTAAAAGA [XGTACX_site235]”, “GAACCGTTTTTATGTAGTACATATGTATATATATAT [XGTACX_site1577]” is higher in “gcPBM binding intensity (ln)” value: 6.44 for the first, 8.69 for the second.

First: TAATATATTAAAAGAAGTACATTTCTGATTTAATAG [XGTACX_site6403]
Second: AGTAAATATATTATATGTACGTATCATAAAATATAT [XGTACX_site1567]
The “gcPBM binding intensity (ln)” value of the first is lower: 5.9 for the first, 6.38 for the second.

First: TTAATATTAAAATATAAACACACAAAATTCAATTAT [CACACA_site9262]
Second: TTTCTTATATTATATAAATATATAGATGTTAATGGT [CACACA_negctrl_site706]
The “gcPBM binding intensity (ln)” value of the first is lower: 6.49 for the first, 6.56 for the second.

Going from “AATATAATATAATGCACACATAAAAAAAAAAAAAAA [CACACA_site304]” to “TATTACAAAAATGTGTTATTATATAAACGTATAGAG [XGTACX_negctrl_site529]”, the “gcPBM binding intensity (ln)” value falls from 10.9 to 6.66.

First: TTTATTCTCCGACACACACACATATATTTATTTATA [CACACA_site7377]
Second: AAATTAGAATTAGGAACACACATATTTATATTTATA [CACACA_site7450]
The “gcPBM binding intensity (ln)” value of the first is higher: 7.09 for the first, 6.27 for the second.

First: ATATATAAAAAATGTGGTACATTCATTTATTATACA [XGTACX_site3495]
Second: TAAATTATAATAAATACACACAAATTATAATTCTAT [CACACA_site3942]
The “gcPBM binding intensity (ln)” value of the first is lower: 5.95 for the first, 6.65 for the second.

Compared with “CATTTTATAAAAAGCACACATATAGTTATATGCACA [CACACA_site3691]”, “TATATATATATACATTGTACATTATTGATTATAACA [XGTACX_site1678]” is higher in “gcPBM binding intensity (ln)” value: 8.73 for the first, 9.09 for the second.

First: TTTGAATCCTTATATACACACATTATATAATATTAT [CACACA_site4472]
Second: TTTTATATATTATATACACACATATATATATATATA [CACACA_site2999]
The “gcPBM binding intensity (ln)” value of the first is lower: 6.91 for the first, 9.3 for the second.

Going from “TGTATGTTTATTTATCGTACATATATATATATATAT [XGTACX_site7315]” to “AATAAATAAATATATACACACATATATCTGTACATA [CACACA_site9034]”, the “gcPBM binding intensity (ln)” value falls from 9.33 to 6.66.

Compared with “AGGAAAAAAAAAATGTGTACTTAAAAAAAAAAAATT [XGTACX_site1471]”, “TTTTATCATATTTATTGTACACATAATATACATATC [XGTACX_site1145]” is higher in “gcPBM binding intensity (ln)” value: 6.29 for the first, 7.35 for the second.

Going from “CGTTTATATTTTAACTGTACTCAAAAAGTGCATTGT [XGTACX_site6072]” to “TGTTCATTTATTTACTTACACACTTTATATATGTGG [CACACA_site1410]”, the “gcPBM binding intensity (ln)” value falls from 7.29 to 6.94.

Compared with “TAAAAGTAGATATATACACACATAAATATAGATGTA [CACACA_site6457]”, “ACATATTTCCAATAATGTACATACAAAATAAGAATG [XGTACX_site2659]” is higher in “gcPBM binding intensity (ln)” value: 6.27 for the first, 6.68 for the second.

First: AATATTTTATATAAATGTACATTTATGAATAATATA [XGTACX_site8477]
Second: GTGCTAAAAGTATATGCACACACATATATATGCACA [CACACA_site8472]
The “gcPBM binding intensity (ln)” value of the first is lower: 6.62 for the first, 10.6 for the second.

Going from “ACAAAGTAAAATAATGCATGTAGGTATACATAATTA [TGCATGCA_site607]” to “AGTTATGCATCTTAGGTGCTATGCCCAATTTATTTT [GTGCAC_site9977]”, the “gcPBM binding intensity (ln)” value rises from 6.42 to 7.24.

First: AACTTACTCTTTACAAGTACGTAAAAGAAATAGAAA [XGTACX_site1782]
Second: AAAAAAAAAAAAAATGCACACATATATTTCCATATA [CACACA_site8416]
The “gcPBM binding intensity (ln)” value of the first is lower: 6.13 for the first, 9.18 for the second.

Compared with “TTGCCTTAAAAAGGAACACACATGCTTTTTTTAGTT [CACACA_site938]”, “AATAAAGCAATAAATACACACATATATATATATATA [CACACA_site2934]” is higher in “gcPBM binding intensity (ln)” value: 6.13 for the first, 9.38 for the second.

First: TATATAAAAAATAGGTGGTCAACTTAAATATTTTAT [XGTACX_site4495]
Second: AAAAATGTGCACACGCGTACACACAAAAAAAGAAAA [XGTACX_site4097]
The “gcPBM binding intensity (ln)” value of the first is lower: 6.46 for the first, 10.3 for the second.

Compared with “AAAATATATCAAAATAGTACATAATTTTTTAAGAAT [XGTACX_site3515]”, “TTTTTTTCTTTTTTTTGTACTCATACATACTATCAT [XGTACX_site607]” is higher in “gcPBM binding intensity (ln)” value: 6.41 for the first, 6.42 for the second.

First: GTAGTAATAAATCTAGTGCATTATATATAACAAAAA [GTGCAC_site9803]
Second: TTACTATGTAAACACACATGCAATATATGTTAAGCC [TGCATGCA_site253]
The “gcPBM binding intensity (ln)” value of the first is higher: 9.9 for the first, 6.57 for the second.

First: TTATATGAAAATTATTGTACAATCTATAAAAAAAAT [XGTACX_site4194]
Second: GTAATTATATACATACGTACATACACATATGTATAT [XGTACX_site4149]
The “gcPBM binding intensity (ln)” value of the first is higher: 6.85 for the first, 6.55 for the second.

Source: the supplement of paper PMC11417369
